Results published in PubChem BioAssay AID651820 (National Center for Advancing Translational Sciences (NCATS), 2012).
Out of some 340,000 compounds screened, about 12,000 (3.5%) were called active. Inconclusive results, whose numbers are uncertain, are shown with a selection of clear calls. The call rests on the fitted dose curve; in most records, active means well fitted inhibition curve with a large enough effect; inconclusive means small, poorly fitted or top-dose-only effect, or another doubt; inactive means no such curve, though single readings can be large or run the other way. Potencies of inconclusive entries are left out as doubtful fits.
Potency means the concentration at half of the fitted maximal effect; tags describe the fitted curve by direction and shape.

Assay: qHTS Assay for Inhibitors of Hepatitis C Virus (HCV)
Settings: Huh7.5.1 HCVcc-Cre (HCVcc is cell-culture hepatitis C virus) infection, luciferase reporter, 44 h; series mostly up to 41.8 µM
Method in brief: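 Antiviral activity was scored by luciferase reporter output from cells infected with HCVcc-Cre (~0.5 moi) in presence of compound, 44 h infection period, cells seeded 1,000/well 4 h prior.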
With O=C(NC1CCCC1)c1cccc2c1C(=O)c1ccc(/C=C/c3ccccc3)cc1S2(=O)=O the Potency was “inactive”. With C/C(=N\NC(=S)NCc1ccccc1)c1cccs1 the Potency was inconclusive [inhibitor, partial curve]. With CCOc1c(Br)cc(/C=N\NC(=O)c2ccccc2)cc1OC the Potency was inconclusive [inhibitor, partial curve]. With CC(C)N(C(=O)c1nn(C)c2c1CSc1ccccc1-2)C1CCCCC1 the Potency was inconclusive [inhibitor, single point]. With CCOc1ccc2nc(N3CCC(C(=O)N4CCC5(CC4)OCCO5)CC3)sc2c1 the Potency was inconclusive [inhibitor, partial curve]. In the case of O=S(=O)(NC1c2cccc3cccc(c23)C1N1CCNCC1)c1ccc(Cl)cc1 (stereo not drawn), the Potency was inconclusive [inhibitor, single point]. For C/C(=N\N=C(/N)c1nonc1N)c1ccc2c(c1)OCO2, the Potency was inconclusive [inhibitor, single point]. For CN1CCN(C(CNS(=O)(=O)c2ccc(Cl)cc2)c2cccnc2)CC1 (stereo not drawn), the Potency was inconclusive [inhibitor, single point]. With COc1ccc(NC(=O)CN(C)CC(=O)Nc2ccc3c(c2)CCC3)cc1 the Potency was “inactive”. For Cc1cc(S(=O)(=O)Nc2ccc(C(=O)N3CCN(C(=O)c4ccco4)CC3)cc2)ccc1F, the Potency was “inactive”. For O=C(COC(=O)c1ccc(Cl)nc1)Nc1c(Cl)cccc1C(F)(F)F, the Potency was inconclusive [inhibitor, single point]. With CCCN(CC(=O)Nc1cc(Cl)ccc1Cl)C(=O)/C=C/c1ccco1 the Potency was inconclusive [inhibitor, partial curve]. For COc1ccc2c(c1)CC/C(=C\Nc1ccc3c(c1)OCO3)C2=O, the Potency was active: 7.08 µM. In the case of C/C(=N\NC(=O)c1c(Cl)cnn1C)c1cccc(NC(=O)COc2ccccc2)c1, the Potency was inconclusive [inhibitor, partial curve]. In the case of CN(CCCNC(=O)c1ccc(CS(=O)c2ccc(Br)cc2)o1)Cc1ccccc1 (stereo not drawn), the Potency was “inactive”. For CN1CCN(c2nnc(-c3ccc(F)cc3)c3ccccc23)CC1, the Potency was “inactive”. With Cc1ccnc(-n2c(-c3ccco3)nc3ccccc3c2=O)c1 the Potency was “inactive”. For COc1ccc2ccccc2c1/C=N/NC(=O)c1cccc(Br)c1, the Potency was inconclusive [inhibitor, single point]. For CCOC(=O)c1c(NC(=O)CSc2n[nH]c(N)n2)sc(CC)c1C, the Potency was inconclusive [inhibitor, full curve, poor fit]. For O=[N+]([O-])c1ccc(NC2CCN(Cc3ccccc3)CC2)c2ccncc12, the Potency was inconclusive [inhibitor, single point]. With NC(=O)c1ncn([C@@H]2O[C@H](CNS(=O)(=O)c3cc(S(=O)(=O)c4ccccc4)cs3)[C@@H](O)[C@H]2O)n1 the Potency was “inactive”. With Cc1cn(CC(=O)NCCCc2ccccc2)c(=O)[nH]c1=O the Potency was active: 2.82 µM. For CN(CCC1CCCCO1)C(=O)CCc1nnc(Cc2c[nH]c3ccccc23)o1 (stereo not drawn), the Potency was “inactive”. With Cc1onc(-c2ccccc2Cl)c1C(=O)NCc1ccco1 the Potency was “inactive”. For CCCOC(=O)c1[nH]c2c(c1C)C(=O)CC(c1cccs1)C2 (stereo not drawn), the Potency was inconclusive [inhibitor, full curve, poor fit]. With CCn1c(SCC(=O)N2CCCc3ccccc32)nnc1-c1cccs1 the Potency was inconclusive [inhibitor, single point]. For CC1CCC2(CC1)NC(=O)N(Cc1cccc(C(F)(F)F)c1)C2=O (stereo not drawn), the Potency was inconclusive [inhibitor, partial curve, poor fit]. With COc1cccc(CNC(=O)CCCn2ccc3cc(S(=O)(=O)N4CCCC4)ccc32)c1 the Potency was inconclusive [inhibitor, single point]. For CCC(CC)C(=O)Nc1cccc(-c2nc3ccccc3o2)c1, the Potency was inconclusive [inhibitor, partial curve]. In the case of CN(C)S(=O)(=O)c1ccc(C(=O)Nc2ccc(Cl)cc2)cc1, the Potency was inconclusive [inhibitor, single point]. In the case of Cc1[nH]n(-c2cccc3ccccc23)c(=O)c1/C=N/NC(=O)c1cccc([N+](=O)[O-])c1, the Potency was inconclusive [inhibitor, single point]. For CCOCCCNC(=O)c1cn(CC)c2ccc(S(=O)(=O)N3CCOCC3)cc2c1=O, the Potency was “inactive”. With COc1ccccc1NC(=O)Nc1ccccc1SC the Potency was “inactive”. In the case of COc1cc(C)cc(CN2CC=C(c3ccccc3)CC2)c1O, the Potency was inconclusive [inhibitor, single point]. For CC(C)Cn1c(N)c(C(=O)CSc2ccccc2)c(=O)n(C)c1=O, the Potency was inconclusive [inhibitor, full curve]. In the case of Cc1c2c(n3c(nc4ccccc43)c1C#N)N(CCN(C)C)CC2, the Potency was active: 11.2 µM. With O=C(Cn1c(=O)oc2cc(S(=O)(=O)N3CCCC3)ccc21)N1CCN(c2ccccn2)CC1 the Potency was inconclusive [inhibitor, partial curve]. In the case of Cc1ccc(-c2cc(C(=O)O)c3ccccc3n2)s1, the Potency was “inactive”. For CN(CC(=O)Nc1ccc(C#N)cc1)Cc1ccc(Cl)c(Cl)c1, the Potency was “inactive”. In the case of Cc1cccc(C(=O)NC2CC3CCCC(C2)N3S(=O)(=O)c2ccccc2)c1 (stereo not drawn), the Potency was inconclusive [inhibitor, single point]. In the case of CC(C)NC(=O)Cn1c(=O)cnc2ccccc21, the Potency was “inactive”. In the case of COc1ccc(NC(=O)NCC(C)CSc2ccc(C)cc2)c(OC)c1 (stereo not drawn), the Potency was inconclusive [inhibitor, partial curve]. With O=C(CN1C(=O)CSC1=O)NC1CCCCC1 the Potency was “inactive”. For Cc1coc2cc3oc(=O)c(CCC(=O)N4C[C@H]5C[C@@H](C4)c4cccc(=O)n4C5)c(C)c3cc12, the Potency was “inactive”. In the case of CC(C)CCNc1nc(N)c([N+](=O)[O-])c(N2CCCCCC2)n1, the Potency was inconclusive [inhibitor, single point]. With c1cc(-c2nc3cc(Cc4ccc5oc(-c6ccncc6)nc5c4)ccc3o2)ccn1 the Potency was “inactive”. In the case of O=C(CCc1cccc(Cl)c1)N1CCCC(Nc2ccccc2)C1 (stereo not drawn), the Potency was inconclusive [inhibitor, partial curve]. In the case of Cc1ccc(C(=O)Nc2ccc3c(c2)OCCO3)cc1S(=O)(=O)N1CCOCC1, the Potency was inconclusive [inhibitor, partial curve]. In the case of CCOCCCn1c(SCC(=O)Nc2ccc3[nH]c(=O)[nH]c3c2)nc2ccccc2c1=O, the Potency was inconclusive [inhibitor, single point]. For O=C1C(=C(c2ccccc2)c2ccccc2)Nc2ccccc21, the Potency was inconclusive [inhibitor, single point]. For O=C(Nc1nccs1)c1ccc(CSc2ccccc2)o1, the Potency was inconclusive [inhibitor, single point]. For O=C(Nc1cccc(-c2cccc(Cl)c2)c1)C1CCN(Cc2ccon2)CC1, the Potency was inconclusive [inhibitor, single point]. For Cc1cccc(-c2nc(CSCC(=O)N3CCN(c4ccccn4)CC3)c(C)o2)c1, the Potency was active: 11.2 µM. For COc1cc(OC)cc(C(=O)NCCSCc2ccc(Cl)cc2)c1, the Potency was inconclusive [inhibitor, single point]. For CCc1ccc(-n2cc(-c3ccc(F)cc3)[n+]3c2SCCC3)cc1, the Potency was inconclusive [inhibitor, single point]. For COC(=O)c1ccc(CO/N=C/c2ccc(OC)cc2)o1, the Potency was “inactive”. With CCOC(=O)c1ccc(NC(=S)N(CCCN2CCN(CC)CC2)Cc2cccs2)cc1 the Potency was inconclusive [inhibitor, partial curve]. For CSc1ccccc1NC(=O)CN(C)CC(=O)Nc1c(F)cccc1F, the Potency was “inactive”. With CSc1ccccc1C(=O)Nc1ccccc1C the Potency was “inactive”. With COC(=O)c1c(NC(=O)CS(=O)(=O)c2ccccc2)sc(C)c1C the Potency was inconclusive [inhibitor, single point]. In the case of CCCCCC(=O)N/N=C/c1ccco1, the Potency was “inactive”. With Cc1cc(/C=C2/C(=N)N3C(c4ccccc4)=CSC3=NC2=O)c(C)n1-c1ccc(Cl)cc1 the Potency was “inactive”. With CCN(CC)CCCNc1ncnc2scc(-c3ccc(F)cc3)c12 the Potency was inconclusive [inhibitor, partial curve]. With O=C(CN1C(=O)S/C(=C\C=C\c2ccccc2)C1=O)NC1CCS(=O)(=O)C1 (stereo not drawn) the Potency was “inactive”. In the case of CCN(CC(=O)Nc1ccc(NC(C)=O)cc1)C(=O)c1ccc(N2C(=O)c3ccccc3C2=O)cc1, the Potency was “inactive”. In the case of O=C(NC(=S)Nc1ccccc1Cl)C1CC1, the Potency was inconclusive [inhibitor, single point]. With Cc1cc(C(F)F)nn1CC(=O)NCc1ccco1 the Potency was “inactive”. In the case of COc1ccc(CNCCc2c(C)[nH]c3ccc(OC(F)(F)F)cc23)c(OC)c1, the Potency was active: 17.8 µM. In the case of CCOC(=O)c1c(NC(=O)COC(=O)c2nc(Cl)ccc2Cl)sc(C(=O)NC)c1C, the Potency was inconclusive [inhibitor, single point]. In the case of Cc1ccc(C)c2c1[nH]c1ccc([N+](=O)[O-])cc12, the Potency was active: 10 µM. In the case of CCN1C(=O)S/C(=C\c2ccc(N3CCOCC3)cc2C)C1=O, the Potency was inconclusive [inhibitor, single point]. For CC(=O)Nc1ccc(S(=O)(=O)N2CCN(Cc3cccc([N+](=O)[O-])c3)CC2)cc1, the Potency was “inactive”. In the case of CO/N=C(\c1nonc1N)N1CCN(c2ccc(Cl)cc2[N+](=O)[O-])CC1, the Potency was inconclusive [inhibitor, single point].
